Among the data in the supplement of paper PMC9927326 are MIC values, retold here.

MIC of clinical C. albicans isolates, CLSI broth microdilution (ranges and time not stated); higher = less susceptible. Call: susceptible or wild type [S] / resistant or non-wild type [R] by CLSI breakpoints or epidemiological cut-offs; intermediate and dose-dependent carry no call here (the paper groups them with resistant). '<=' and '>=' mark each drug's lowest and highest value, inferred; the source prints them plain. Isolates are numbered anew.

Common to all, as to assay: CLSI broth microdilution.
Background: In broth dilution the organism is exposed to a series of concentrations in liquid medium.

Compound in one experiment: OC(Cn1cncn1)(Cn1cncn1)c1ccc(F)cc1F [fluconazole]
Compound in another experiment: CCC(C)n1ncn(-c2ccc(N3CCN(c4ccc(OCC5COC(Cn6cncn6)(c6ccc(Cl)cc6Cl)O5)cc4)CC3)cc2)c1=O [itraconazole]
Compound in a further experiment: CCCCCOc1ccc(-c2ccc(-c3ccc(C(=O)N[C@H]4C[C@@H](O)[C@@H](O)NC(=O)[C@@H]5[C@@H](O)[C@@H](C)CN5C(=O)[C@H]([C@@H](C)O)NC(=O)[C@H]([C@H](O)[C@@H](O)c5ccc(O)cc5)NC(=O)[C@@H]5C[C@@H](O)CN5C(=O)[C@H]([C@@H](C)O)NC4=O)cc3)cc2)cc1 [anidulafungin]
Compound in another experiment: Nc1[nH]c(=O)ncc1F [flucytosine]
Compound in another experiment: CC[C@@H]([C@H](C)O)n1ncn(-c2ccc(N3CCN(c4ccc(OC[C@@H]5CO[C@@](Cn6cncn6)(c6ccc(F)cc6F)C5)cc4)CC3)cc2)c1=O [posaconazole]
Compound in a further experiment: C[C@@H](c1ncncc1F)[C@](O)(Cn1cncn1)c1ccc(F)cc1F [voriconazole]
Compound in the next experiment: C[C@@H]1[C@H](O)[C@@H](C)/C=C/C=C/C=C/C=C/C=C/C=C/C=C/[C@H](O[C@@H]2O[C@H](C)[C@@H](O)[C@H](N)[C@@H]2O)C[C@@H]2O[C@](O)(C[C@@H](O)C[C@@H](O)[C@H](O)CC[C@@H](O)C[C@@H](O)CC(=O)O[C@H]1C)C[C@H](O)[C@H]2C(=O)O [amphotericin B]
Compound in a further experiment: CC[C@H](C)C[C@H](C)CCCCCCCCC(=O)N[C@H]1C[C@@H](O)[C@@H](NCCN)NC(=O)[C@@H]2[C@@H](O)CCN2C(=O)[C@H]([C@H](O)CCN)NC(=O)[C@H]([C@H](O)[C@@H](O)c2ccc(O)cc2)NC(=O)[C@@H]2C[C@@H](O)CN2C(=O)[C@H]([C@@H](C)O)NC1=O [caspofungin]
Compound in a further experiment: CCCCCOc1ccc(-c2cc(-c3ccc(C(=O)N[C@H]4C[C@@H](O)[C@@H](O)NC(=O)[C@@H]5[C@@H](O)[C@@H](C)CN5C(=O)[C@H]([C@H](O)CC(N)=O)NC(=O)[C@H]([C@H](O)[C@@H](O)c5ccc(O)c(OS(=O)(=O)O)c5)NC(=O)[C@@H]5C[C@@H](O)CN5C(=O)[C@H]([C@@H](C)O)NC4=O)cc3)no2)cc1 [micafungin]

For the test system “Candida albicans isolate 232 (Erg11p: D153E, Fur1p: WT, Tac1p: 858Y,N823K,I558V,F189S)”, the MIC with fluconazole is 0.5 mg/L [S]; in the experiment with itraconazole, 0.03 mg/L [S]; with anidulafungin, not above 0.015 mg/L [S]; with flucytosine, 0.12 mg/L [S]; in the experiment with posaconazole, 0.015 mg/L [S]; with voriconazole, not above 0.008 mg/L [S]. Moreover, the MIC with amphotericin B was found to be 0.5 mg/L [S]; with caspofungin, 0.015 mg/L [S]; with micafungin, 0.015 mg/L [S].
“Candida albicans isolate 233 (Erg11p: WT, Fur1p: WT, Tac1p: N896S)”: the minimum inhibitory concentration (MIC) in the experiment with fluconazole was 0.25 mg/L [S]; with itraconazole, not above 0.015 mg/L [S]; with anidulafungin, not above 0.015 mg/L [S]; with flucytosine, not above 0.06 mg/L [S]; in the experiment with posaconazole, 0.03 mg/L [S]; in the experiment with voriconazole, not above 0.008 mg/L [S]. Besides, the MIC in the experiment with amphotericin B was 0.25 mg/L [S]; in the experiment with caspofungin it was 0.015 mg/L [S]; with micafungin, 0.015 mg/L [S].
In the case of “Candida albicans isolate 234 (Erg11p: G465S,Y132H, Fur1p: R101C, Tac1p: WT)”, the MIC is 1 mg/L [S] with fluconazole; not above 0.015 mg/L [S] with itraconazole; not above 0.015 mg/L [S] with anidulafungin; not above 0.06 mg/L [S] with flucytosine; not above 0.008 mg/L [S] with posaconazole; 0.12 mg/L [S] with voriconazole. Also, the figures for the MIC with amphotericin B, in the experiment with caspofungin and in the experiment with micafungin were 0.25 mg/L [S], 0.015 mg/L [S] and 0.015 mg/L [S], respectively.
As to “Candida albicans isolate 235 (Erg11p: E266D, Fur1p: WT, Tac1p: T885K,I558V,A430V,A377V,F189S,N174D,M170I,M170V,K87N)”, the MIC with fluconazole was 0.25 mg/L [S]; in the experiment with itraconazole, 0.06 mg/L [S]; with anidulafungin it was 0.06 mg/L [S]; with flucytosine, not above 0.06 mg/L [S]; in the experiment with posaconazole, 0.03 mg/L [S]; with voriconazole, not above 0.008 mg/L [S]. The MIC in the experiment with amphotericin B was 0.5 mg/L [S]; with caspofungin, 0.06 mg/L [S]; with micafungin it was not above 0.008 mg/L [S].
Take “Candida albicans isolate 236 (Erg11p: E266D, Fur1p: WT, Tac1p: T885K,I558V,A430V,A377V,M170V)”: the minimum inhibitory concentration (MIC) with fluconazole was 0.25 mg/L [S]; with itraconazole, not above 0.015 mg/L [S]; in the experiment with anidulafungin, not above 0.015 mg/L [S]; with flucytosine, not above 0.06 mg/L [S]; in the experiment with posaconazole, not above 0.008 mg/L [S]; with voriconazole, not above 0.008 mg/L [S]. Besides, the MIC in the experiment with amphotericin B was 0.25 mg/L [S]; with caspofungin, 0.015 mg/L [S]; with micafungin it was not above 0.008 mg/L [S].
Consider “Candida albicans isolate 237 (Erg11p: K342R, Fur1p: WT, Tac1p: I558V,A377V,F189S,N174D,M170I,K87N)”, for which the MIC is 0.5 mg/L [S] in the experiment with fluconazole; 0.03 mg/L [S] with itraconazole; 0.03 mg/L [S] in the experiment with anidulafungin; not above 0.06 mg/L [S] in the experiment with flucytosine; 0.015 mg/L [S] with posaconazole; not above 0.008 mg/L [S] with voriconazole. Besides, the MIC stood at 0.25 mg/L [S] with amphotericin B, 0.03 mg/L [S] with caspofungin and 0.015 mg/L [S] with micafungin.
“Candida albicans isolate 238 (Erg11p: G129A, Fur1p: WT, Tac1p: R869Q,L695F,I558V,A377V,F189S,M170V,L131I)”: the MIC with fluconazole was 0.5 mg/L [S]; with itraconazole, not above 0.015 mg/L [S]; in the experiment with anidulafungin it was not above 0.015 mg/L [S]; in the experiment with flucytosine, not above 0.06 mg/L [S]; with posaconazole it was not above 0.008 mg/L [S]; in the experiment with voriconazole, not above 0.008 mg/L [S]. For the same test system, the MIC in the experiment with amphotericin B came out at 0.25 mg/L [S]; with caspofungin it was 0.015 mg/L [S]; with micafungin, 0.015 mg/L [S].
With “Candida albicans isolate 239 (Erg11p: WT, Fur1p: WT, Tac1p: WT)”, the MIC in the experiment with fluconazole is 0.5 mg/L [S]; with itraconazole, 0.03 mg/L [S]; with anidulafungin, 0.03 mg/L [S]; with flucytosine it was not above 0.06 mg/L [S]; with posaconazole it was 0.015 mg/L [S]; with voriconazole it was not above 0.008 mg/L [S]. The MIC with amphotericin B is 0.5 mg/L [S]; with caspofungin, 0.03 mg/L [S]; with micafungin, 0.015 mg/L [S].
In the case of “Candida albicans isolate 240 (Erg11p: D153E, Fur1p: WT, Tac1p: N896S)”, the MIC with fluconazole is 0.25 mg/L [S]; with itraconazole, 0.03 mg/L [S]; with anidulafungin it was 0.06 mg/L [S]; with flucytosine, 0.12 mg/L [S]; with posaconazole it was 0.03 mg/L [S]; in the experiment with voriconazole it was not above 0.008 mg/L [S]. Further, the MIC stood at 0.5 mg/L [S] in the experiment with amphotericin B, 0.03 mg/L [S] in the experiment with caspofungin and 0.015 mg/L [S] with micafungin.
For the test system “Candida albicans isolate 241 (Erg11p: D153E, Fur1p: WT, Tac1p: N896S)”, the MIC with fluconazole is 0.5 mg/L [S]; with itraconazole, 0.06 mg/L [S]; with anidulafungin, 0.06 mg/L [S]; with flucytosine it was not above 0.06 mg/L [S]; with posaconazole, 0.015 mg/L [S]; with voriconazole, not above 0.008 mg/L [S]. Further, the minimal inhibitory concentration (MIC) with amphotericin B was found to be 0.5 mg/L [S]; with caspofungin, 0.03 mg/L [S]; in the experiment with micafungin, 0.015 mg/L [S].
Turning to “Candida albicans isolate 242 (Erg11p: WT, Fur1p: WT, Tac1p: A377V,F189S,N174D,M170I,K87N)”, the minimum inhibitory concentration (MIC) is 0.5 mg/L [S] with fluconazole; 0.06 mg/L [S] with itraconazole; not above 0.015 mg/L [S] with anidulafungin; not above 0.06 mg/L [S] in the experiment with flucytosine; 0.03 mg/L [S] with posaconazole; 0.03 mg/L [S] in the experiment with voriconazole. Also, the results for the MIC with amphotericin B, with caspofungin and with micafungin were 1 mg/L [S], 0.06 mg/L [S] and 0.015 mg/L [S], respectively.
As for “Candida albicans isolate 243 (Erg11p: V488I,V437I,E266D,K143E, Fur1p: WT, Tac1p: I895T,T782A,I558V,A377V,F189S,N174D,M170I,M170V,K87N)”, the MIC with fluconazole was 2 mg/L [S]; with itraconazole, 0.03 mg/L [S]; with anidulafungin, not above 0.015 mg/L [S]; with flucytosine, not above 0.06 mg/L [S]; in the experiment with posaconazole, 0.015 mg/L [S]; with voriconazole, 0.015 mg/L [S]. The MIC with amphotericin B was 0.25 mg/L [S]; in the experiment with caspofungin it was 0.015 mg/L [S]; in the experiment with micafungin, not above 0.008 mg/L [S].
For “Candida albicans isolate 244 (Erg11p: G129A, Fur1p: WT, Tac1p: R869Q,L695F,R688*,I558V,A377V,F189S,M170V,L131I)”, the MIC is 0.5 mg/L [S] in the experiment with fluconazole; 0.03 mg/L [S] with itraconazole; not above 0.015 mg/L [S] with anidulafungin; not above 0.06 mg/L [S] with flucytosine; 0.03 mg/L [S] with posaconazole; not above 0.008 mg/L [S] with voriconazole. The results for the MIC with amphotericin B, with caspofungin and with micafungin were 0.25 mg/L [S], 0.015 mg/L [S] and 0.015 mg/L [S], respectively.
On to “Candida albicans isolate 245 (Erg11p: WT, Fur1p: WT, Tac1p: N896S)”, for which the MIC in the experiment with fluconazole was not above 0.12 mg/L [S]; with itraconazole, not above 0.015 mg/L [S]; with anidulafungin, not above 0.015 mg/L [S]; in the experiment with flucytosine it was not above 0.06 mg/L [S]; in the experiment with posaconazole, 0.015 mg/L [S]; in the experiment with voriconazole, not above 0.008 mg/L [S]. In addition, the MIC with amphotericin B came out at 0.5 mg/L [S]; with caspofungin, 0.015 mg/L [S]; with micafungin it was 0.015 mg/L [S].
As for “Candida albicans isolate 246 (Erg11p: WT, Fur1p: WT, Tac1p: I558V,A377V,F189S,N174D,M170I,K87N)”, the MIC is 0.25 mg/L [S] with fluconazole; 0.03 mg/L [S] in the experiment with itraconazole; 0.03 mg/L [S] in the experiment with anidulafungin; not above 0.06 mg/L [S] in the experiment with flucytosine; 0.015 mg/L [S] in the experiment with posaconazole; not above 0.008 mg/L [S] with voriconazole. Also, the MIC with amphotericin B is 0.5 mg/L [S]; in the experiment with caspofungin it was 0.03 mg/L [S]; in the experiment with micafungin, 0.015 mg/L [S].
Consider “Candida albicans isolate 247 (Erg11p: V437I,E266D, Fur1p: WT, Tac1p: S937L,I895T,A723T,L695F,I558V,F189S,L131I)”, for which the MIC in the experiment with fluconazole was 0.5 mg/L [S]; with itraconazole it was not above 0.015 mg/L [S]; in the experiment with anidulafungin, not above 0.015 mg/L [S]; with flucytosine, not above 0.06 mg/L [S]; in the experiment with posaconazole, 0.03 mg/L [S]; with voriconazole, not above 0.008 mg/L [S]. Moreover, the MIC was 0.5 mg/L [S] in the experiment with amphotericin B, 0.03 mg/L [S] with caspofungin and 0.015 mg/L [S] with micafungin.

One may read the MIC as the smallest concentration in the dilution series that meets the test's criterion for growth inhibition.
